Reference: the supplement of paper PMC10185492
The list shows a part of the results. Read counts after selection give these values, which scatter widely.

The substances below were run on SARS-CoV-2 3CLpro (nsp5) (assay: substrate phage enrichment score (protease-eluted vs HEPES control, +1 offset) (ratio); higher = better cleaved substrate). Conditions: selection round: 4; protease elution time: 15 min.
Description: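 Random heptapeptide substrate phage display (M13 pIII fusion, heptapeptide between an N-terminal biotinylated AviTag GLNDIFEAQKIEWHE and pIII; phages immobilised on streptavidin) eluted by cleavage with 50 nM protease in 20 mM HEPES at 37 °C. Selected phages were NGS sequenced, and the enrichment score is (reads in protease sample + 1)/(reads in HEPES blank-selection control + 1).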

Substance | substrate phage enrichment score
DSTQPSA | > 24
EDTGNMV | 0.0536
GAPASRS | 3.17
VPTSRLQ | > 42
GDDGNWQ | > 35
VCMETQH | > 22
QTWPSRL | > 47
SGRKGNP | 6.17
CSKTNSK | 0.3
QKGVKMQ | 19.3
SCSQPAG | 1.53
IVRPHII | 0.619
DIPRSYP | > 23
VYGRCAV | > 22
TDTEAWS | > 39
RSGAHHH | 2.29
CVRRIEP | > 22
LQAAHHH | 1.7
CRDAHDS | 11
ERIHTQG | > 25
QQPEYMV | 1.33
SNTEPRD | 23.3
EFRACPP | > 30

Substance | substrate phage enrichment score
RRPDHFH | 1.21
YTDALRQ | 1.12
LTETNPS | > 25
ESDENHA | 7.25
QNGMESA | 4.33
PESPLKN | 8.27
NPRVSLQ | > 42
VGVCGRV | 6.25
KCQRTHI | 2.83
CTPQKCQ | > 25
IRTDLSA | 0.3
SKTGTKC | > 40
RSCVLQS | > 29
YPSMRPQ | 3.4
CQGSVKG | > 44
DCAAAHH | 0.481
QLHSQNG | 11.3
VESSVRQ | 3.69
CTGATLQ | > 29
QRAPCPL | > 46
GSATRLQ | > 103
GVSAYDN | 1.85
NAGERDR | > 37

Substance | substrate phage enrichment score
QQCTNGW | 15.3
SDALTSK | 3.33
RRDAIPV | 1.73
QYMPVPR | 4.17
PMTTRLQ | > 30
LNRIEQT | > 24
SRAFNRE | > 34
RQGTLSP | 2.8
REGHIRL | 0.5
SGIRQLV | 2.57
AERLSCY | 1.86
YRTPVSG | > 38
CDRGCAY | 1.14
LEPGLTR | 5.43
HECDLYP | 1.46
PHDCTVG | > 21
CPCNVTR | > 21
RKLNTLG | > 52
NSRAGRS | 47
VNYNNKT | > 29
PGGTCTG | > 51
NSDAQRS | 5
CQSRGPT | 0.421

Substance | substrate phage enrichment score
TKQSYSG | > 28
PAAHHHH | 0.885
ASQGGAK | > 36
YSRGDME | > 22
SYGSDAR | 2.6
NAAVRRP | > 84
GGYNGAM | > 34
TNGHLNA | > 33
GSTAAHH | 0.412
HARATTA | 72.5
MHVPNSP | 3.33
CATPDCA | > 34
AHRAGNV | 3.89
SIGQTHS | > 91
ASDSVLQ | > 69
PCAKSQE | 0.262
LGQPDLW | > 38
PPVAEQH | 33
SWQVGNS | 7.88
SPQQTPI | 0.0375
LAVPPRD | > 22
PLREALP | > 21
QWRPVQI | 3.09

Substance | substrate phage enrichment score
SRQLYSP | > 35
QGNLNTC | 0.194
ASAAHHH | 1.34
HERNGLG | 0.0444
KHQLPVR | > 53
KHCGSNG | 13.5
VLLTDPV | > 25
VRPQKAP | > 38
NREQNAD | > 25
GSDAPSP | > 26
PSGRCSR | > 34
AERINTR | > 29
VKTSWPP | > 58
VAWPQLQ | > 49
GHAEAQT | > 33
RVAAHHH | 1.56
NHWAGTA | > 25
ANTSGLN | 0.6
GCTTHGA | > 24
KCQSLDW | 3.48
SESELPD | 2.41
HLHFQGG | 2.36
TREIYSE | 2.75

Substance | substrate phage enrichment score
THNQIMK | 5
APCPASR | 5.5
LLPLEAR | 6
GQAAKLQ | 78
KTDVNLH | > 21
PVVENAR | > 29
PKAAHHH | 0.753
VHMKVER | > 24
NKPHVQG | > 24
QHAITGH | 1.67
GLRLFFR | > 25
TAGVTLH | 24
LTRLCAE | 4.14
TPVSGCQ | > 42
AQSSVTI | 9.17
TNAAHHH | 0.45
GAATLQA | > 55
SRQRNRQ | > 22
PIQTKQC | > 26
RPVPKVC | 4.5
GQAHPCG | > 23
MYYWPWR | 2.9
CDVLPLR | > 41

Substance | substrate phage enrichment score
CGLGGYR | 0.52
SNCWRAA | > 25
ACNQSVK | > 23
ECNFQGG | > 47
TRSGKPP | 1.07
QELYSQG | > 26
TPDLTPV | > 43
KAQLMSN | > 24
AMTCTLQ | > 35
TPAAHHH | 0.608
SAAILQS | > 24
GQRLRLP | 1.64
NTIAVMQ | 20
NGSPNSS | 4.5
RKCILQS | > 59
ESRQGVC | > 39
TQGSVSH | > 93
DTAAHHH | 0.494
SFAKDGP | 8.25
AQAVMQS | > 23
NPQSPSP | > 29
APNMRSQ | 0.192
SRPHFQG | > 42

Substance | substrate phage enrichment score
EARAMLQ | > 22
RPQHLIK | > 21
LLLPKED | > 27
TWNYRPS | > 21
VTIDNGA | 2.29
ITQHRFP | > 25
QDMRSVH | > 24
TPGRLEV | 2.1
LTQRSNT | > 24
QVIPSVK | > 227
DPQRKFL | 8.53
AHCTQLQ | 266
DREEKMR | 40.5
MSGITHG | 2.21
STGEYRQ | 0.194
STQGGSA | 1.15
QIDTMSR | > 27
SVYQTRD | > 21
STPAMMA | 2.29
HCGDAAA | 2
STTTREP | > 26
NASAHHH | 1.53
TPPAHHH | 3.8
